According to publication PMC4336329 (PLoS ONE, 2015):
Hit rate of the full screen: of about 310,000 compounds, about 2,200 (0.71%) showed an effect of 50% or more. The effect is printed as a negative number. The list shows a part of the results.

Each molecule was assayed against human ether-à-go-go-related gene (hERG) potassium channel (human, UniProt Q12809) (assay: primary screen, population patch clamp on CHO cells stably expressing hERG).
Sequence of human ether-à-go-go-related gene (hERG) potassium channel (Q12809 whole entry, looked up): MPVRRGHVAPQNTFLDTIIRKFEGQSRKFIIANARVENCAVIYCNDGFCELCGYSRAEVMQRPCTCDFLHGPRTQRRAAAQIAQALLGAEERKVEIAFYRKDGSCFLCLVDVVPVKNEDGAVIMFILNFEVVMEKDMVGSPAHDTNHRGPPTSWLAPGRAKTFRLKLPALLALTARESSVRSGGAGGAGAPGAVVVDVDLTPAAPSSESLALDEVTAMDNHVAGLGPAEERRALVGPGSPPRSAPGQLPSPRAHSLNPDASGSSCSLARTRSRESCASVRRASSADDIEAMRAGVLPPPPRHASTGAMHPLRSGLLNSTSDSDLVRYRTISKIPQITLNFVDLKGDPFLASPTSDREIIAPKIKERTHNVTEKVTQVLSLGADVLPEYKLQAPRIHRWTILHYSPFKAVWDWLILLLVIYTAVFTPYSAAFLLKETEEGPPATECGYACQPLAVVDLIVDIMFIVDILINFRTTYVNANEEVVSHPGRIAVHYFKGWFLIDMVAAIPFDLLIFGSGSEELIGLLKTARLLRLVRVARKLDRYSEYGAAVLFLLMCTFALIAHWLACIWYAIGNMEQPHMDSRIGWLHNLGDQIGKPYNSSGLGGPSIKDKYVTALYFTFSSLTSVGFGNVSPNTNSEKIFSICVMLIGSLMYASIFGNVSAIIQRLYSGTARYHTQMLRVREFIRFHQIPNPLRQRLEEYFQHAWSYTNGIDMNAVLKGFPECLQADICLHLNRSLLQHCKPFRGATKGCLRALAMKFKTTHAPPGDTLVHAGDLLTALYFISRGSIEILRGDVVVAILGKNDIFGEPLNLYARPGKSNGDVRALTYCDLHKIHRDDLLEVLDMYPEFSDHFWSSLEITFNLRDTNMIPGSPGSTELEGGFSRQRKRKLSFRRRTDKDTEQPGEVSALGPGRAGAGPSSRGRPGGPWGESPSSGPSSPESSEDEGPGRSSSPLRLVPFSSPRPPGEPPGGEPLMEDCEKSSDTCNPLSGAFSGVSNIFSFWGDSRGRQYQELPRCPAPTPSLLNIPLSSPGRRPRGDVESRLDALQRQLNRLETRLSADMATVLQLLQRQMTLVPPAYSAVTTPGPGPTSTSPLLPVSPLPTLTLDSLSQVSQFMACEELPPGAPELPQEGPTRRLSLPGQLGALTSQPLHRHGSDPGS

Row | Structure (SMILES) | hERG current change (%, negative = inhibition) at 1uM [%]
1 | COC(=O)[C@@H]1CC[C@H](C)[C@@H](c2ccc(C)cc2)N1C(=O)c1ccc(/C=N/O[C@H](C)c2cn([C@@H]3COC[C@H]3O)nn2)cc1 | 1.12
2 | COc1ccc(CNCCC(c2ccc(OC(C)C)cc2)C(C)C)cc1OC (stereo not drawn) | -43.2
3 | CSc1nsc(SCC(=O)Nc2ccccc2)n1 | 10.8
4 | COc1ccc(-c2c[n+](CC(=O)N3c4ccccc4Sc4ccccc43)c3n2CCC3)cc1.[Cl-] | 10.4
5 | CNS(=O)(=O)c1ccc(C(=O)NCC(=O)NC(C)c2cccs2)cc1 (stereo not drawn) | 2.15
6 | O=C(CSc1nc(-c2ccc(F)cc2)cs1)Nc1ccccn1 | 16
7 | O=C(Nc1ccc2c(c1)OCO2)c1cc(-c2cccnc2)nc2ccccc12 | 12.8
8 | Cc1ccc(S(=O)(=O)N2CCC(=O)N(CCOC(=O)Nc3ccc(F)cc3)CC2)cc1 | -13.8
9 | CCOc1ccc(C(=O)Nc2ccccc2OC(F)F)cc1 | 8.71
10 | CCn1c2ccccc2c2cc(NC(=O)C(=O)NCC3CCCO3)ccc21 (stereo not drawn) | 4.03
11 | Cc1ccc(Cn2ccc(NC(=O)c3cc(-c4ccco4)on3)n2)cc1 | 3.32
12 | O=C(Nc1cccc(C(F)(F)F)c1)C1CCCN(S(=O)(=O)c2cnc[nH]2)C1 (stereo not drawn) | -1.08
13 | COc1ccc(S(=O)(=O)Nc2ccccc2C(=O)N2CCOCC2)cc1C | 7.95
14 | Cc1cc(C)nc(Nc2ncc(O)n2-c2ccccc2)n1 | 13.8
15 | CCS(=O)(=O)N1N=C(c2ccc(NS(C)(=O)=O)cc2)CC1c1ccccc1 (stereo not drawn) | -3.64
16 | COc1ccc2nc(SCC(=O)Nc3ccccc3OC)[nH]c2c1 | 13.6
17 | CCc1nnc(NC(=O)CCC(=O)N2CCN(c3cccc(Cl)c3)CC2)s1 | 12.2
18 | CC(=O)Nc1nc(COc2ccccc2)cs1 | 2.62
19 | CCOC(=O)CN(C)Cc1c[nH]c2ccccc12 | 13.1
20 | CN(Cc1ccsc1)C(=O)CCc1nnc(CCCc2ccccc2)o1 | 2.61
21 | COc1cc2c(cc1NC(=O)CSc1ccc(Cl)cc1)oc1ccccc12 | 2.51
22 | CCOC(=O)c1c(NC(=O)c2ccc(Cl)cc2)csc1C | 3.47
23 | C#CC[N+](C)(C)CC#Cc1ccc(C)cc1.[Br-] | 11.6
24 | CCOc1ccc2[nH]c3nc(SCC(=O)NCC4CCCO4)nnc3c2c1 (stereo not drawn) | 9.57
